According to paper PMC4336329 (PLoS ONE, 2015):
The whole screen tested about 310,000 compounds, of which about 14,000 (4.5%) showed an effect of 50% or more. The effect is printed as a negative number. The list shows a part of the results.

Target: human ether-à-go-go-related gene (hERG) potassium channel (human, UniProt Q12809)
Assay: primary screen, population patch clamp on CHO cells stably expressing hERG
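Also: peak tail current of the secondary pulse compared with the same well before compound.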

human ether-à-go-go-related gene (hERG) potassium channel, sequence (Q12809 whole entry, looked up): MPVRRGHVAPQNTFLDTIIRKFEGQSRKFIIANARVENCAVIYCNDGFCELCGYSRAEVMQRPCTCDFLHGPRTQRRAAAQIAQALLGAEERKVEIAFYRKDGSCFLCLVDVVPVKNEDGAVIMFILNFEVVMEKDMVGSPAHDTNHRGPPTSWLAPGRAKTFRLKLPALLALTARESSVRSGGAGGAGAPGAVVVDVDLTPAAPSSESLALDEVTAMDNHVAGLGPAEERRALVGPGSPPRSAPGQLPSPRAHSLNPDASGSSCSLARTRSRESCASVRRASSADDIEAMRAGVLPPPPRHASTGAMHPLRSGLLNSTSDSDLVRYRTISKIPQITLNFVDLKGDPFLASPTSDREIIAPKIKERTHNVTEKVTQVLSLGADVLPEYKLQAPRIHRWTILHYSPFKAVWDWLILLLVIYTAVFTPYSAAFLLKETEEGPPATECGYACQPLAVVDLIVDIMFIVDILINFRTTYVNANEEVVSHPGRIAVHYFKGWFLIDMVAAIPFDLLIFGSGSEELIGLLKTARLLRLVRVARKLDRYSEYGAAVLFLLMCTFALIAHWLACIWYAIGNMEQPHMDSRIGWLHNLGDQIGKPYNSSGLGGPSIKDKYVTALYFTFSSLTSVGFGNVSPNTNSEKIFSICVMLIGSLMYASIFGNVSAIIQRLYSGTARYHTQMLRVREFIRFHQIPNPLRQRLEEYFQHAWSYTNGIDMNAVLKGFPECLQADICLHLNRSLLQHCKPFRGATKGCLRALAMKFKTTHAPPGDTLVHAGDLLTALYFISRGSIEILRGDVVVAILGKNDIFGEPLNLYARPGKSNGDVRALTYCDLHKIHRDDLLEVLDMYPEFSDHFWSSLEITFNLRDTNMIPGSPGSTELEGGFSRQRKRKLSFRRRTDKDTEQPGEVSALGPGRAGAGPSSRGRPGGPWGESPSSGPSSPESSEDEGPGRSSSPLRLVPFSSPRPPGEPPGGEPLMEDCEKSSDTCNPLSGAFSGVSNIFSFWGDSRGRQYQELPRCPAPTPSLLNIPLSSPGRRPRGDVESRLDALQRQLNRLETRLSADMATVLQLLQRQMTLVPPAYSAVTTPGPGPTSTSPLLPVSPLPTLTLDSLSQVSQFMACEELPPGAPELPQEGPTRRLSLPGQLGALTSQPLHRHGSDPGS

SMILES	hERG current change (%, negative = inhibition) at 10uM
Cc1cc(C)cc(N(CC(=O)NC(C)(C)C)C(=O)CNC(=O)c2cccs2)c1	6.98%
CC(C)(C)C(=O)CC1(O)C(=O)N(Cc2ccccc2)c2ccccc21 (stereo not drawn)	13.8%
Cn1c(N2CCCC2)nc2c1c(=O)n(Cc1ccc(F)cc1)c(=O)n2C	0.592%
NC(N)=NS(=O)(=O)c1ccc(NC(=S)NC(=O)/C=C/c2ccccc2)cc1	7.3%
O=C(O)CCc1ccc(-c2ccccc2)n1-c1cccc(O)c1	-11.8%
Cn1c(=O)c(=O)n(C)c2cc(S(=O)(=O)CCC(=O)N3CCOCC3)ccc21	5.29%
O=C(COc1ccccc1)Nc1ccccc1NS(=O)(=O)c1cccs1	-21.9%
CCO.CN1CC=C2C(C#N)=C(N)C(C#N)(C#N)[C@H](c3ccoc3)[C@H]2C1	-9.34%
CCc1c(SCCC(=O)O)nc2ccccc2c1C	34.7%
COC(=O)c1ccccc1C(=O)N1CCCC(C(=O)c2cc(F)ccc2F)C1 (stereo not drawn)	3.21%
O=C(O)CN1C(=O)c2cccc3c(Br)ccc1c23	20.6%
CN1CCN(CCC(=O)N/N=C/c2cc([N+](=O)[O-])ccc2OC(F)F)CC1	1.78%
COc1ccccc1CCNC(=O)C(C)n1nc(C)c2c(C)n(-c3ccccc3)nc2c1=O (stereo not drawn)	-12.3%
CCSc1nc2sc3c(c2c(=O)n1-c1ccccc1)CCN(C(C)C)C3	12.5%
CC(C)COc1nc2ccccc2c(=O)n1OCC(=O)O	14%
Cc1cc(C(C)(C)C)nc2[nH]n(-c3ccccc3)c(=O)c12	-7.94%
CCC(C)NC(=O)[C@H]1N2C(=O)c3c(ccc(OC)c3OC)C2SC1(C)C (stereo partly drawn)	16.8%
CCOC(=O)c1nnc(-c2ccccc2)nc1Oc1ccccc1Cl	22.5%
Nn1c(SCC(=O)N2CCCC2=O)nnc1-c1cccs1	-2.91%
O=C(c1ccccc1-c1nc(-c2ccccc2)no1)N1CCOCC1	-6.65%
Cc1ccccc1NC(=O)OCc1cccnc1Sc1ccc(Cl)cc1	6.4%
CC1CCCCC1NC(=O)CN1C(=O)NC(C)(c2cc(F)ccc2F)C1=O (stereo not drawn)	8.64%
Cc1cccc(Cl)c1OCCCN1CCOCC1.O=C(O)C(=O)O	0.808%
CCOC(=O)CNC(=O)CSc1nc(Cc2cccs2)nc2ccccc12	-30%
CCN(CC)C(=O)C1CCCN(C/C=C/c2ccccc2[N+](=O)[O-])C1 (stereo not drawn)	-33%
CC(=O)NCCC(=O)N(C)CC1CCN(CCc2cccc(C(F)(F)F)c2)CC1	2.52%
CS(=O)(=O)c1ccccc1C(=O)Nc1ccc(-c2nc3ccccc3[nH]2)cc1	-0.0903%

SMILES	hERG current change (%, negative = inhibition) at 10uM
Cc1ccc(N(C(=O)c2ccncc2)C2C=CS(=O)(=O)C2)cc1 (stereo not drawn)	-4.29%
Cc1ccc(-n2c(SCC(=O)N3Cc4ccccc4CC3C(=O)O)nnc2-c2cccnc2)c(C)c1 (stereo not drawn)	6.83%
COc1ccc(CC(NC(C)=O)C(=O)NC2CCN(c3nc(C)cc(C)c3C#N)CC2)cc1 (stereo not drawn)	-17.3%
O=C(Oc1cccc(OC(=O)N2CCCCC2)c1)N1CCCCC1	-2.53%
COc1ccc(-c2c(C#N)c(N)nc3sc(C(=O)c4ccc(C)cc4)c(N)c23)cc1	16.7%
O=C1C(=O)N(CCN2CCOCC2)C(c2cccc(Cl)c2)/C1=C(\O)c1ccc2c(c1)OCCO2 (stereo not drawn)	-4.38%
O=C(CN(C(=O)Cn1nnc(-c2cccs2)n1)c1cnc2ccccc2c1)NCC1CCCO1 (stereo not drawn)	-23.8%
CCC1Nc2ncnc(N3CCOCC3)c2N(Cc2ccc(C)cc2)C1=O.O=C(O)C(F)(F)F (stereo not drawn)	-0.36%
O=C(c1cccc(Oc2ccc([N+](=O)[O-])cc2Cl)c1)N1CCCCC1	-40.3%
COC(=O)c1c(C)[nH]c(C(=O)COC(=O)CCNS(=O)(=O)c2cccc(C(F)(F)F)c2)c1C	-6.21%
O=C(NN1C(=O)C2C3C=CC(O3)C2C1=O)c1ccncc1 (stereo not drawn)	4.98%
COC(=O)c1cccc(NC(=O)c2ccc3c(c2)C(=O)N(Cc2cccnc2)C3=O)c1C	22.4%
C[N+](C)(C)CCNC(=O)c1cc[n+](Cc2ccccc2)c(/C=N/O)c1.[I-]	17.6%
CCOC(=O)CCc1c(C)c2ccc(OCc3cc([N+](=O)[O-])ccc3OC)cc2oc1=O	5.69%
CCOC(=O)C1CCCN(C(=O)CCNS(=O)(=O)c2ccc(Br)cc2)C1 (stereo not drawn)	-37.4%
Cc1ccccc1NC(=O)C(C)O/N=C/c1cccc([N+](=O)[O-])c1 (stereo not drawn)	-38.7%
COc1cc(C(=O)NC2CCCC2)c(Br)c(OC)c1OC	7.61%
COCCNC(=O)c1cc2c(s1)-c1ccc(Cl)cc1SC2	-5%
CCOC(=O)N1CCC(NC(=O)C(CC(C)C)NC(=O)C2CCC(C)CC2)CC1 (stereo not drawn)	7%
Cc1cc(C)c2cc(CN(Cc3nnnn3C3CCCCC3)CC3CCCO3)c(=O)[nH]c2c1 (stereo not drawn)	-35.1%
COC(=O)N/N=C(\C)c1ccc(C)c([N+](=O)[O-])c1	-0.21%
CC(=O)Nc1ccc(CC#N)cc1	15%
CC(=O)Nc1ccc(-c2csc(NC(=O)Cc3cccc(F)c3)n2)cc1	0.461%
COc1ccc(/C=C/C(=O)Nc2cccc(F)c2)cc1S(=O)(=O)N1CCOCC1	-26.7%
CCN(CC)S(=O)(=O)c1ccc(NC(=S)Nc2ccccc2)cc1	10.4%
O=C(Nc1ccc(F)cc1)N1CCN(c2nc3ccccc3s2)CC1	1.48%
COC(=O)CCSc1cc([N+](=O)[O-])cc2c1c(C1OCCO1)nn2-c1ccccc1	11.6%
